According to the supplement of paper PMC7125110:
± gives the standard error. Variants at the floor of the assay are shown more often than the library holds them.

B1: glmS ribozyme (parent)
chain: AUAAAAGCGCCAGAACUACAGAAAUGUAGUUGACGAGGAGGAGGUUUAUCGAAUUUUCGGCGGAUGCCUCCAAA

Variants of: B1
Experiment: self-cleavage kobs at 10000 uM GlcN6P; higher = faster cleavage; RNA array
Conditions: with glucosamine-6-phosphate
Summary of the method: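 On sequenced MiSeq chips, barcoded ribozyme variants were made in situ by E. coli RNA polymerase and followed at 37 °C through a hybridised Cy3 probe. Glucosamine-6-phosphate was flowed in at 40 μM to 10 mM in HEPES/KCl/Mg(OAc)2 buffer. Exponential fits to normalised per-tile medians gave kobs, and weighted Michaelis–Menten fits gave kcat and KM.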

Point of comparison: G13C U55G C58G, “self-cleavage kobs at 10000 uM GlcN6P” value 4.29e-05 ± 1.4e-05 s⁻¹. Against it:
- A12G U49A G66U C71G — lower, < 1e-05 s⁻¹
- A12G U55C U69A — lower, < 1e-05 s⁻¹
- A12U A14G U57A — 15-fold higher, 0.000643 ± 0.00011 s⁻¹
- A12U A39G G63C — lower, < 1e-05 s⁻¹
- A12U A42G C58G — 18-fold higher, 0.00079 ± 0.00015 s⁻¹
- A12U C50A G51U C58G — lower, < 1e-05 s⁻¹
- A12U C50G G62A C71U — 1.9-fold higher, 8.18e-05 ± 2.2e-05 s⁻¹
- A12U G13U G29C — within error, 3.79e-05 ± 1.5e-05 s⁻¹
- A12U G32C G38C — lower, < 1e-05 s⁻¹
- A12U G32U A33U G38C — lower, < 1e-05 s⁻¹
- A12U G35A A48U G62A C70G — lower, < 1e-05 s⁻¹
- A12U G40A G51C — lower, < 1e-05 s⁻¹
- A12U G41A U54C — 22-fold higher, 0.000963 ± 0.00021 s⁻¹
- A12U G51C C67U — lower, < 1e-05 s⁻¹
- G13A A15U A53G G60U — lower, < 1e-05 s⁻¹
- G13A C16U G32U — 7-fold higher, 0.000302 ± 4.9e-05 s⁻¹
- G13A C34U U45A — lower, < 1e-05 s⁻¹
- G13A G37U A42U A48U — lower, < 1e-05 s⁻¹
- G13A U46G A48U A52C G63C — lower, < 1e-05 s⁻¹
- G13C A14G U69G — within error, 3.8e-05 ± 1.6e-05 s⁻¹
- G13C A42C C50U — lower, < 1e-05 s⁻¹
- G13C A42G U65C — lower, < 1e-05 s⁻¹
- G13C C61U G62U C71U — lower, < 1e-05 s⁻¹
- G13C G32C C61A C68G C70G — lower, < 1e-05 s⁻¹
- G13C U46C C61U — lower, < 1e-05 s⁻¹
- G13U A15U C34A G44A U47A A48G C50G A53G — lower, < 1e-05 s⁻¹
- G13U C16U A53U G62U — lower, < 1e-05 s⁻¹
- G13U C50U G60U — lower, < 1e-05 s⁻¹
- G13U G38A U57C C58U C61G — lower, < 1e-05 s⁻¹
- G13U G38C C58U C61U — lower, < 1e-05 s⁻¹
- G13U G41C A52U — lower, < 1e-05 s⁻¹
- G13U U47A A48U U54C C58A — lower, < 1e-05 s⁻¹
- G13U U49A G62U A64C C71G — lower, < 1e-05 s⁻¹
- A14C A36C G59A G66U — lower, < 1e-05 s⁻¹
- A14C A39C C70G — lower, < 1e-05 s⁻¹
- A14C G35A U54G G59A G63C — lower, < 1e-05 s⁻¹
- A14C G38U A53U — lower, < 1e-05 s⁻¹
- A14C G40C G63A C68U C70A — lower, < 1e-05 s⁻¹
- A14C G40U U56G — 200-fold higher, 0.00853 ± 0.0032 s⁻¹
- A14G A15C A52U A64C C68A — lower, < 1e-05 s⁻¹
- A14G A64G C68G — lower, < 1e-05 s⁻¹
- A14G C50G C70U — 2.2-fold higher, 9.53e-05 ± 1.4e-05 s⁻¹
- A14G C58U C71U — 2.8-fold higher, 0.00012 ± 2.1e-05 s⁻¹
- A14G G43U C67U C71G — lower, < 1e-05 s⁻¹
- A14G U30G U47C — 39-fold higher, 0.00168 ± 0.00041 s⁻¹
- A14U A33C G43C A52U G60A C67G — lower, < 1e-05 s⁻¹
- A14U A48C C61G — lower, < 1e-05 s⁻¹
- A14U G40A U54A — 5.7-fold higher, 0.000245 ± 8.4e-05 s⁻¹
- A14U U30G U31C — 16-fold higher, 0.000695 ± 0.00016 s⁻¹
- A15C A36C C67G — lower, < 1e-05 s⁻¹
- A15C A42G U47G A53G — 16-fold higher, 0.000696 ± 9.1e-05 s⁻¹
- A15C G29U A33C G38U C70G — lower, < 1e-05 s⁻¹
- A15C G32C C34U A52G A53U C67U — lower, < 1e-05 s⁻¹
- A15C G35A U46G — lower, < 1e-05 s⁻¹
- A15C G37C G38U A52U U56G — lower, < 1e-05 s⁻¹
- A15C G40U C50G — lower, < 1e-05 s⁻¹
- A15C G41A A48G U49G — lower, < 1e-05 s⁻¹
- A15C G63A C70U — lower, < 1e-05 s⁻¹
- A15C U30A A36U — lower, < 1e-05 s⁻¹
- A15C U54A G59U — lower, < 1e-05 s⁻¹
- A15G A36G C61U C67G — lower, < 1e-05 s⁻¹
- A15G G29C G44U U69G — lower, < 1e-05 s⁻¹
- A15G G37C G38U U46A — lower, < 1e-05 s⁻¹
- A15G G51U C71U — lower, < 1e-05 s⁻¹
- A15G G62C — lower, < 1e-05 s⁻¹
- A15G U31A A36G C58U — lower, < 1e-05 s⁻¹
- A15U C16A A39U — 6.4-fold higher, 0.000273 ± 6.1e-05 s⁻¹
- A15U C34U C71A — lower, < 1e-05 s⁻¹
- A15U G32C G62C C71G — lower, < 1e-05 s⁻¹
- A15U G37C G60U — lower, < 1e-05 s⁻¹
- A15U G38U U57C C61U — lower, < 1e-05 s⁻¹
- A15U G44U — within error, 3.08e-05 ± 1.4e-05 s⁻¹
- A15U G44U C61A — lower, < 1e-05 s⁻¹
- A15U G62C C70A — lower, < 1e-05 s⁻¹
- A15U U30G A48U A53G — 2.6-fold higher, 0.000112 ± 3.6e-05 s⁻¹
- A15U U31C G38U G44A G51U C71U — lower, < 1e-05 s⁻¹
- C16A G35U G60U — lower, < 1e-05 s⁻¹
- C16A G38A A48C — lower, < 1e-05 s⁻¹
- C16A U31A C71G — within error, 4.01e-05 ± 1.1e-05 s⁻¹
- C16A U31C G60A C61U — lower, < 1e-05 s⁻¹
- C16G G38A C67A C71U — lower, < 1e-05 s⁻¹
- C16G G59A C71G — lower, < 1e-05 s⁻¹
- C16U A33G G41C U46G — lower, < 1e-05 s⁻¹
- C16U A53U G62U C71G — lower, < 1e-05 s⁻¹
- C16U A53U U65G — 57-fold higher, 0.00246 ± 0.00058 s⁻¹
- C16U G38A A52G C71G — lower, < 1e-05 s⁻¹
- C16U G40C A53C C71U — 13-fold higher, 0.000561 ± 0.00013 s⁻¹
- C16U G63U — lower, < 1e-05 s⁻¹
- C19A C34G — lower, < 1e-05 s⁻¹
- C19A G35C U47C U49G G51U C68U C71U — lower, < 1e-05 s⁻¹
- C19A U31G A42C — lower, < 1e-05 s⁻¹
- A23G U46G G59C — lower, < 1e-05 s⁻¹
- G29A C58U C70U — within error, 5.99e-05 ± 1.7e-05 s⁻¹
- G29A G40A G41U A52G — lower, < 1e-05 s⁻¹
- G29A G43U C50G G62A — lower, < 1e-05 s⁻¹
- G29A U30A U49G G51A A52U G62U C67U — lower, < 1e-05 s⁻¹
- G29C A33U G38U C68A — lower, < 1e-05 s⁻¹
- G29C A33U G41A U47G — lower, < 1e-05 s⁻¹
- G29C A36C G63A — lower, < 1e-05 s⁻¹
- G29C A64C C71U — lower, < 1e-05 s⁻¹
- G29C C34U G38A C71U — lower, < 1e-05 s⁻¹
- G29C G41C A48G G59U C68G — lower, < 1e-05 s⁻¹
- G29C U31C C34G A53C — lower, < 1e-05 s⁻¹
- G29C U45A C58G G62A — lower, < 1e-05 s⁻¹
- G29U A48U U49G — lower, < 1e-05 s⁻¹
- U30A G41U A53G C58A G59U G62A G66A C70U — lower, < 1e-05 s⁻¹
- U30A G59U C71A — lower, < 1e-05 s⁻¹
- U30C A36C G44U U47C — lower, < 1e-05 s⁻¹
- U30C G35U G43U G66U — lower, < 1e-05 s⁻¹
- U30C G40A U56A G62C — lower, < 1e-05 s⁻¹
- U30C G41A G43U — lower, < 1e-05 s⁻¹
- U30C G51A — lower, < 1e-05 s⁻¹
- U30C U31A G40U U56C C61A C71A — lower, < 1e-05 s⁻¹
- U30C U45G A48G C71G — lower, < 1e-05 s⁻¹
- U30G A39C U56A C70G — lower, < 1e-05 s⁻¹
- U30G G38A U46G C50A G59C C71U — lower, < 1e-05 s⁻¹
- U31A A36U U47G C70G — within error, 5.95e-05 ± 1.5e-05 s⁻¹
- U31A A39G G63C — lower, < 1e-05 s⁻¹
- U31A A42U A64U — lower, < 1e-05 s⁻¹
- U31A G32U G41U C68U C71U — lower, < 1e-05 s⁻¹
- U31A G59C C67A — lower, < 1e-05 s⁻¹
- U31C A42G G51A — lower, < 1e-05 s⁻¹
- U31C A48U A52C — lower, < 1e-05 s⁻¹
- U31C A53G G60C C70G — lower, < 1e-05 s⁻¹
- U31C C68A C70G C71G — lower, < 1e-05 s⁻¹
- U31C G32U G41C U54C — lower, < 1e-05 s⁻¹
- U31C G40C U54C U56A A64U — lower, < 1e-05 s⁻¹
- U31C U47G C70G — within error, 4.82e-05 ± 1.5e-05 s⁻¹
- U31G G40C G43A — lower, < 1e-05 s⁻¹
- U31G G41C G43A C50U G51U — lower, < 1e-05 s⁻¹
- G32A G37C G41U — lower, < 1e-05 s⁻¹
- G32A G37U G40A U46G C50U U57C — lower, < 1e-05 s⁻¹
- G32A U57C G62A C67G — lower, < 1e-05 s⁻¹
- G32C A33U G37C U56A — lower, < 1e-05 s⁻¹
- G32C A36C G51C — lower, < 1e-05 s⁻¹
- G32C G38U A42C G43C A52C — lower, < 1e-05 s⁻¹
- G32C U46A C68U C71U — lower, < 1e-05 s⁻¹
- G32C U47A A48C U57G C61G — lower, < 1e-05 s⁻¹
- G32U A33C G37C — lower, < 1e-05 s⁻¹
- G32U A53G C67G — 5.5-fold higher, 0.000238 ± 3.8e-05 s⁻¹
- G32U C34A G37U — lower, < 1e-05 s⁻¹
- G32U C34U U49A — lower, < 1e-05 s⁻¹
- G32U C50A — lower, < 1e-05 s⁻¹
- G32U G35C U46A — lower, < 1e-05 s⁻¹
- G32U G35U G44A C70A — lower, < 1e-05 s⁻¹
- G32U G38C U47C A52U — lower, < 1e-05 s⁻¹
- G32U G40C A42C G62A C70U — lower, < 1e-05 s⁻¹
- G32U G43U U69C — lower, < 1e-05 s⁻¹
- A33C A39C G62U G66C C70A — lower, < 1e-05 s⁻¹
- A33C G38A C58A — lower, < 1e-05 s⁻¹
- A33C G41U A64G — lower, < 1e-05 s⁻¹
- A33G A39G G44A G51A — lower, < 1e-05 s⁻¹
- A33G A42C U47C G60A — lower, < 1e-05 s⁻¹
- A33G A52G — lower, < 1e-05 s⁻¹
- A33G C34U C50G C67U — 4.5-fold higher, 0.000194 ± 3.6e-05 s⁻¹
- A33G C50A — lower, < 1e-05 s⁻¹
- A33G G41U G43U A53G U57A C71A — lower, < 1e-05 s⁻¹
- A33G G60C C70G — lower, < 1e-05 s⁻¹
- A33G U56A C67A — lower, < 1e-05 s⁻¹
- A33U A53U G59U — lower, < 1e-05 s⁻¹
- A33U G41C A52U A53C — lower, < 1e-05 s⁻¹
- A33U G41U C58G — lower, < 1e-05 s⁻¹
- C34A A39G C61U A64G — lower, < 1e-05 s⁻¹
- C34A G35A A39G A42G G51A — lower, < 1e-05 s⁻¹
- C34A G35A U56A G63C — lower, < 1e-05 s⁻¹
- C34A G38U U47C U57A — lower, < 1e-05 s⁻¹
